# Test results reported in PubChem BioAssay AID1460 (National Center for Advancing Translational Sciences (NCATS), 2008).
# Screen size: about 270,000 compounds; about 5,800 (2.1%) were called active. The shares of active, inactive and inconclusive entries below differ from those in the screen. Calls come from the whole dose curve; as a rule, active = well fitted inhibition curve with a large enough effect; inconclusive = small, poorly fitted or top-dose-only effect; inactive = flat fitted curve, though single readings scatter. Where the call is inconclusive, the potency comes from a doubtful curve fit.
# Target: Microtubule-associated protein tau (Homo sapiens) (UniProt P10636)
# Experiment: qHTS for Inhibitors of Tau Fibril Formation, Thioflavin T Binding; note: nearly all actives have a fitted effect of over 55% in size
# Conditions: recombinant tau K18 P301L (four-repeat tau fragment), heparin-induced fibrillization, ThT fluorescence; series mostly up to 57.4 µM
# Procedure, shortened: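 K18 P301L tau (15 uM + 0.24 uM Alexa 594-tagged), heparin 20 uM, NaOAc pH 7, 6 h 37 C; ThT 30 uM, 1 h RT, ex 450/em 510 nm.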
# Potency is the fitted concentration of half-maximal effect; tags give direction and shape of the fitted curve.
# Sequence of UniProt P10636 (P10636 whole entry, looked up): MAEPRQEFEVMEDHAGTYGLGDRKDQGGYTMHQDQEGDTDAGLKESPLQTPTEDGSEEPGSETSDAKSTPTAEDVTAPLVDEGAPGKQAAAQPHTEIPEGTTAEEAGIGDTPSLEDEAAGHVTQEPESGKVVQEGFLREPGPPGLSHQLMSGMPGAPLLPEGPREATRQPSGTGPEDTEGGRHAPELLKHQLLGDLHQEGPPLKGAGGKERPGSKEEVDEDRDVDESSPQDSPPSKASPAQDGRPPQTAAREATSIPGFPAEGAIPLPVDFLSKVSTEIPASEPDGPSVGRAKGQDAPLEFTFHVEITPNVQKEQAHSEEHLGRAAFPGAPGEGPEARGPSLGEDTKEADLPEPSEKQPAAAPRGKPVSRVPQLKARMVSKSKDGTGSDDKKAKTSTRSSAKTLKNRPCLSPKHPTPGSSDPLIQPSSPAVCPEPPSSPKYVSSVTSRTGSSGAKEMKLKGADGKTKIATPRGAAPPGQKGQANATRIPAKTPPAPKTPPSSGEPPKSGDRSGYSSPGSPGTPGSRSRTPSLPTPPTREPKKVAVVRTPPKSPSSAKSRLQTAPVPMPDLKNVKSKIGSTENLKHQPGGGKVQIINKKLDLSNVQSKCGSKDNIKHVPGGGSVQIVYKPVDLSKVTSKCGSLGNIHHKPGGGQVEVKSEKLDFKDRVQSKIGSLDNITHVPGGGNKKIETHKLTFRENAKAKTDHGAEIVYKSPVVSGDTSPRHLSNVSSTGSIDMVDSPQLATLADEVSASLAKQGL
row,Compound,Potency
1,Cc1cccc(Cn2cc(/C=C/[N+](=O)[O-])c3ccccc32)c1,"inconclusive: 28.2 µM [inhibitor, partial curve]"
2,N#CC1=C(N)NC(SCc2ccc(Br)cc2)=C(C#N)C12CCCCC2,inactive
3,FC(F)(F)c1cnc(-c2cnc(-c3ccncc3)nc2)c(Cl)c1,"inconclusive: 15.8 µM [inhibitor, single point]"
4,Cc1ccccc1N1CC(C(=O)O)CC1=O (centres undefined),"inconclusive: 2.51 µM [inhibitor, partial curve]"
5,O=C(c1ccc([N+](=O)[O-])cc1)N1CCN=C1SCc1ccccc1,"inconclusive: 17.8 µM [inhibitor, partial curve]"
6,Cc1nc2nc(SCC(=O)N(C)Cc3ccccc3)nn2c(C)c1Cc1ccccc1Cl,"inconclusive: 28.2 µM [inhibitor, single point]"
7,CC1CCc2c(nc3ncnn3c2N2CCN(c3ccccc3)CC2)C1 (centres undefined),"inconclusive: 31.6 µM [inhibitor, single point]"
8,CCN(CC)c1cc(C)c2cc(NC(=O)c3cccc(OC)c3OC)ccc2n1,"inconclusive: 2.51 µM [inhibitor, full curve]"
9,COc1ccc2c(c1)c1ccc3c(c1n2C)C(=O)C=CC3=O,active: 5.01 µM
10,COc1ccc(Nc2nc3ccccc3nc2NS(=O)(=O)c2ccc(C)cc2)c(OC)c1,"inconclusive: 0.562 µM [inhibitor, full curve]"
11,COC(=O)c1sc2cccc(F)c2c1S(=O)(=O)N1CCN(c2cccc(OC)c2)CC1,inactive
12,CCOc1ccc(NCC(=O)Nc2ccc(C)cc2C)cc1,"inconclusive: 14.1 µM [inhibitor, partial curve]"
13,O=C(NC1=NCCS1)c1sc2ccccc2c1Cl,"inconclusive: 20 µM [inhibitor, partial curve]"
14,CC(/C=C/c1ccco1)=N\NC(=O)c1cccnc1,active: 28.2 µM
15,O=C(Nc1ccc2c(c1)CCC2)c1ccc(F)cc1,inactive
16,O=C(Nc1ccc(OCc2cc(=O)n3c4c(sc3n2)CCCC4)cc1)c1cccc(F)c1,"inconclusive: 1.58 µM [inhibitor, full curve]"
17,CCOC(=O)c1sc2nc3c(SCCC#N)cc(C(=O)c4cc(F)ccc4O)cn3c(=O)c2c1C,"inconclusive: 17.8 µM [inhibitor, partial curve]"
18,O=C(COc1ccc(Cl)cc1)NCc1nnc2c3ccccc3c(-c3ccccc3)nn12,"inconclusive: 17.8 µM [inhibitor, partial curve, poor fit]"
19,Cc1ccc(-n2c(SCn3nnc4ccccc4c3=O)nnc2-c2cccnc2)c(C)c1,inactive
